# Laboratory results: US20230340087A1 (published 2023)
# B1: ABAB-IgG1, tetra-specific, octameric binding agent (AH3/5D-IgG1 heavy chain + AA6/E3-IgG1 kappa chain) (other)
# heavy: QVQLVETGGGLVQPGGSLRLSCAASGFTLDYSSIGWFRQAPGKEREGVSCISSSGDSTKYADSVKGRFTTSRDNAKNTVYLQMNSLKPDDTAVYYCAAFRATMCGVFPLSPYGKDDWGKGTLVTVSSGGGGSGGGGSGGGGSQVQLVESGGGLVQPGGSLRLSCEASGFTLDYYGIGWFRQPPGKEREAVSYISASARTILYADSVKGRFTISRDNAKNAVYLQMNSLKREDTAVYYCARRRFSASSVNRWLADDYDVWGRGTQVAVSSASTKGPSVFPLAPSSKSTSGGTAALGCLVKDYFPEPVTVSWNSGALTSGVHTFPAVLQSSGLYSLSSVVTVPSSSLGTQTYICNVNHKPSNTKVDKRV[in this place human IgG1 Fc]
# light: QLQLVETGGGLVQPGGSLRLSCAASGFTFSDYVMTWVRQAPGKGPEWIATINTDGSTMRDDSTKGRFTISRDNAKNTLYLQMTSLKPEDTALYYCARGRVISASAIRGAVRGPGTQVTVSSGGGGSGGGGSGGGGSQVQLVESGGGLVQTGGSLRLSCASSGSIAGFETVTWSRQAPGKSLQWVASMTKTNNEIYSDSVKGRFIISRDNAKNTVYLQMNSLKPEDTGVYFCKGPELRGQGIQVTVSSRTVAAPSVFIFPPSDEQLKSGTASVVCLLNNFYPREAKVQWKVDNALQSGNSQESVTEQDSKDSTYSLSSTLTLSKADYEKHKVYACEVTHQGLSSPVTKSFNRGEC
# Molecular target: Clostridium difficile toxin A (TcdA) (Clostridium difficile)
# Assay: cell-based or functional assay
binder,measurement,value
B1,"neutralizing activity against cytopathic effect of TcdA (100 ng/ml) on Vero cells, fold over Merck anti-TcdA antibody",≥ 1000 fold
